Assay results from the supplement of paper PMC11417369.
The other results are listed elsewhere or left out.

Tested on: PF3D7_0420300 AP2 domain 1 (GST-tagged)
Experiment: gcPBM binding intensity (ln(normalized median fluorescence intensity)); higher = stronger DNA binding
Outline: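 GST-tagged P. falciparum DNA-binding domains, expressed in E. coli (about 25 μg on average), were applied for 1 h to an Agilent 4 × 180k array of primer-extended double-stranded 36-bp intergenic genomic probes plus negative controls. The binding buffer was 1× PBS with 1% milk, 0.2 mg/ml BSA, 0.5% salmon testes DNA and 0.03% Triton X-100. Bound protein was detected with Alexa488 anti-GST antibody and scanned at 488 nm. Binding intensity is the highest Masliner-normalised natural-log median intensity across replicate spots of either probe orientation.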

Sequence	gcPBM binding intensity (ln)
TCCTTTTTTTTGTAATGTACTTAGTTTGGTTATATG [XGTACX_site8208]	9.72
TGGAAAAATAGGCACACACACATATATACATATATA [CACACA_site1297]	10
TTTTAATAACCAATCCGTACATATAATCTTTATATT [XGTACX_site536]	9.18
TGAAAAATTACAAAAATAATAAAATGAAATAATAAA [GTGCAC_negctrl_site53]	9.27
TTATTATATTCTCCTTCACACACAAAAATATTTCAT [CACACA_site8738]	9.64
TAAAAGTTATAAGAGTGTACGTATATTTATATATCA [XGTACX_site2972]	9.18
AGGACTAATATTTGAACACACATATAACATATACAT [CACACA_site7803]	9.61
CTTTTAAATTATTTTTGTACATAATTATATATATAT [XGTACX_site4128]	9.26
AACTATAAATATAAATGTACACATATGTAATATATA [XGTACX_site6085]	9.4
TACTGTTTAAAATATAAACACACATTGTTTGCTTTA [CACACA_site8358]	9.27
AAAAGGAAAATTTTCTTAGTAACTGCATTAAGAGAT [GTGCAC_negctrl_site675]	9.19
AAGCATATTATAAACACACACTGTATAAAGATATAT [CACACA_site6277]	9.69
AAGTATAACCTTTATAATAATGACATGACCGATTTT [CACACA_negctrl_site395]	9.33
ATAATACGAATTTGTAGTACATTTATAATAACATGA [XGTACX_site2614]	9.28
TATAACCGAATGTGTACACAAAATAATGTTATATAT [CACACA_site5627]	9.49
ATATAACGAATAATTACACACTATAAAAAAAGATCT [CACACA_site2862]	9.67
TAAAAAACTTCGTGTTCACACATGTACTATATTATT [CACACA_site4796]	9.2
ACCCATAAGATAATTACACACAATACATCCCTATAT [CACACA_site5262]	9.84
TTTTTTTTTTTTTGTTGTACATTAAATATATTATTA [XGTACX_site7254]	9.13

Sequence	gcPBM binding intensity (ln)
CACATACACATACACATACACACGCATAGAAACATA [CACACA_site2136]	9.79
TTGTATAAATATGTATGTATATAATATATGTAAAGA [TGCATGCA_negctrl_site93]	9.4
AAATCGTGTACATTGACACACATAATTTTTTTTATA [CACACA_site2463]	9.4
AATATATTTATATAGTGTACATTTTTTATATATGTA [XGTACX_site8142]	9.18
TATTAATTTTTATTATGTACATAAATAATTTATATT [XGTACX_site5456]	9
TACTATAAAATGGAATGTACACATAAATATATCTAA [XGTACX_site6137]	9.32
ATATGATGTAAAAGCACACATATATATATATATATA [CACACA_site4018]	9.15
GTTTATAACTATGTGTGTACACATTAATCGTTTTTC [XGTACX_site4364]	9.66
AAAAAGAAGATATATACACACCAAAAAAAAAAAAAA [CACACA_site7471]	9.45
ATAATATATTATTATAGTACTTTATTTTATTTTATG [XGTACX_site2387]	9.31
GGATAGATCATTTACACACACAAAAAAAAAAAAAAA [CACACA_site2139]	9.52
AATATATATATACATACATGCATACATATATATATA [TGCATGCA_site784]	9.24
TAAGGAAAAAGAAAAAGTACATTATATAATAAATAG [XGTACX_site3282]	9.2
CAAATATATGTTTTCACACACAAAAGAAATGAAACC [CACACA_site2162]	9.81
AAAAAAAATAAAATGAATAAATAAGAATTACATATT [CACACA_negctrl_site863]	9.28
AAAAAACACGCACATACACACAAAAATGTTATAAAT [CACACA_site6188]	9.87
TTATATTTTTTAATTACACACAATTTTTATAAATAT [CACACA_site4148]	9.38
ATCTCATAAAACCGCACACACATAAAATTTGCATTA [CACACA_site3891]	9.69
CTAGTAAAAAATGCAAGTACATACATTATAAGTATA [XGTACX_site3908]	9.41

Sequence	gcPBM binding intensity (ln)
ATATTGGAGCACAACACACACAAGTATAAATATGGA [CACACA_site6834]	9.98
ATTTCATATACAAATTGTACATACAATTTTATGTTT [XGTACX_site3240]	9.21
TTAAAAATAATATTATGTACTAAGAATAAATATATA [XGTACX_site3100]	8.94
TCTTGTAAATATATGTGTATATTATATTTTATTATA [TGCATGCA_negctrl_site117]	9.42
TGTTAAAATAAAATCTATTACATTTTTATGGTTATA [XGTACX_negctrl_site525]	8.97
CTTAATATTCTTTAAAGTACACAAAATAAGAATATA [XGTACX_site5489]	8.96
TGCAAGGAAAAACACACACACACATAAATGTATATA [CACACA_site751]	10.1
TACATAAATTAAAACACACACACACTAATAAAAAAA [CACACA_site8712]	10.1
ATATGTATGTATGTATGTACTTATTTATTTATTAAT [XGTACX_site8018]	9.36
TAGCTCGTTCGGAGCACACACATATATATATATATA [CACACA_site1948]	9.28
GTTTTATTTTGTTTCTATTTGACACATGTGATTATT [CACACA_negctrl_site1246]	9.7
ATTCAATATATATACACACACACTTTTAATAATTAA [CACACA_site3770]	9.85
TTTTTTTTTGAATATTGTACATATATATTACTTTTA [XGTACX_site5520]	9.17
AAAAAATTATATAAATGTACATTTTGGCTAGACATG [XGTACX_site5977]	9.26
CATATATATAATTATTCACACAATAGTTAAAAGTAT [CACACA_site5302]	9.4
AAAGAGAACAGAAGTACACACATGTTCTTTTAGTAA [CACACA_site5557]	9.34
ATATTCTGCTGTTTAGTGCAATTATGAAATTATGAT	9.18
TTGATTTTTATTTTTAAAATAAATAAATTTCAAATG [TGCATGCA_negctrl_site199]	8.63
